# Measured values as given in publication PMC4336329 (PLoS ONE, 2015).
# In all, about 310,000 compounds went through this assay and about 2,200 (0.71%) showed an effect of 50% or more. Effects have a minus sign here. Some of the results follow.
# Target: human ether-à-go-go-related gene (hERG) potassium channel (human, UniProt Q12809)
# Test: primary screen, population patch clamp on CHO cells stably expressing hERG
# human ether-à-go-go-related gene (hERG) potassium channel, sequence (Q12809 whole entry, looked up): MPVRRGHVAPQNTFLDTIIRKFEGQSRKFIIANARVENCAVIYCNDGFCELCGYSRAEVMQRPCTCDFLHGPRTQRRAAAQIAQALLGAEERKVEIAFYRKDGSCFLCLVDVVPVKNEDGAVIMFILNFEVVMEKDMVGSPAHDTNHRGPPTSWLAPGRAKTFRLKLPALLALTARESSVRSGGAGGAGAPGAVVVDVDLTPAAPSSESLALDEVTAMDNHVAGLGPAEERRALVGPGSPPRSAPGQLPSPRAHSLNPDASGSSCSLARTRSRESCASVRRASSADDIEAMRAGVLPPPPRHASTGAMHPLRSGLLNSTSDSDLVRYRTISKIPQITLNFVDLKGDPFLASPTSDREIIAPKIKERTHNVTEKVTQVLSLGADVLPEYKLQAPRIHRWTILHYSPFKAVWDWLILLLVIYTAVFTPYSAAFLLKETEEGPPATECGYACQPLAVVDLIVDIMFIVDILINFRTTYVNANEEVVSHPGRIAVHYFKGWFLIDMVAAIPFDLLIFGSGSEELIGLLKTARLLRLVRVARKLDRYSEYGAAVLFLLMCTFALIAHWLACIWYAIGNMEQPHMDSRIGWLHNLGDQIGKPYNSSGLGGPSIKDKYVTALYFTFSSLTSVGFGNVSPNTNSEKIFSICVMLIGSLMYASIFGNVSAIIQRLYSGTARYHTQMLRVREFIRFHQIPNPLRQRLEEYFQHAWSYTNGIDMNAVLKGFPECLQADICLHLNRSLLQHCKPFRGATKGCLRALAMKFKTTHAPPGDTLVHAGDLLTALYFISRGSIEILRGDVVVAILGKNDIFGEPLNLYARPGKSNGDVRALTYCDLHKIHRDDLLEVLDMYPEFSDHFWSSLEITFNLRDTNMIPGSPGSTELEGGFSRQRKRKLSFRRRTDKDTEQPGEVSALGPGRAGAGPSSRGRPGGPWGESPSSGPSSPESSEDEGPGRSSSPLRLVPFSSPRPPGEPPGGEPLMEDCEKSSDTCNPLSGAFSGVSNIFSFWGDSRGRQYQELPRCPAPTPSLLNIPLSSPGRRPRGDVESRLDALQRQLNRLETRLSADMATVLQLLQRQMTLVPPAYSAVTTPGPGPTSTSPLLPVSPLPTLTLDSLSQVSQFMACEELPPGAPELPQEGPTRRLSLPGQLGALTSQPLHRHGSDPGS
row,SMILES,"hERG current change (%, negative = inhibition) at 1uM"
1,Cn1c(S(=O)(=O)O)nc2ccccc21,14.2%
2,Clc1ccc(CCNCc2ccncc2)c(Cl)c1.O=C(O)C(=O)O,-13.2%
3,O=C(Nc1nnc(S(=O)(=O)N2CCCCCC2)s1)c1ccccc1F,12.7%
4,CCCn1c(CCC(=O)O)ccc1-c1ccc(F)cc1,12.8%
5,O=C(CCCl)Nc1ccc(S(=O)(=O)NCc2ccco2)cc1,0.0894%
6,O=C(COc1ccc(Br)cc1)N1CCNC1=O,7.31%
7,COc1cc(C=O)ccc1OCC(=O)N1CCOCC1,8.82%
8,CSc1sc(-c2nnc(SCC(=O)Nc3ccc(Cl)cc3)n2C)c2c1C=CCC2,6.35%
9,CCOC(=O)C1CCN(C(=O)CCCn2nc(CC)n3c(cc4occc43)c2=O)CC1,1.18%
10,Cc1c(O)c2c(=O)n(-c3ccccc3)c(-c3ccccc3)cc2oc1=O,4.71%
11,COc1cccc(C(C)NC(=O)c2ccncc2)c1 (stereo not drawn),26.6%
12,COCC(=O)N1CCC(Oc2ccc(C(=O)NC(C)c3nccs3)cc2)CC1 (stereo not drawn),10.4%
13,COc1ccccc1NC(=O)CSc1nnnn1Cc1ccccc1,3.72%
14,CNS(=O)(=O)c1ccc(C(C)(C)C)cc1,7.8%
15,CCCC(C(=O)NCc1ccco1)N(CC1CCCO1)C(=O)CNS(=O)(=O)c1ccc(F)cc1 (stereo not drawn),14.1%
16,COC(=O)/C(=C\c1cccnc1)NC(=O)c1ccc(OCc2ccccc2)cc1,4.19%
17,COc1ccc(C2NC(=O)c3n[nH]c(C)c32)c(OC)c1 (stereo not drawn),10%
18,COc1c(Cl)cccc1-c1cn2ccc(C)cc2n1,14.4%
19,O=C(CN1CCN(Cc2ccccc2)CC1)NC(c1ccccc1)c1ccccc1.O=C(O)C(=O)O,-1.56%

row,SMILES,"hERG current change (%, negative = inhibition) at 1uM"
1,COc1ccc(-n2cc(-c3ccccc3)c3c(N4CCOCC4)ncnc32)cc1,10.3%
2,O=C(CCSCCC(=O)NCc1ccc(F)cc1)NCc1ccc(F)cc1,6.06%
3,CC(=O)NCC(=O)OCC(=O)c1ccc2ccccc2c1,6.73%
4,NCCCCC(N)c1cn([C@@H](CCC(=O)O)C(=O)N2CCNCC2)nn1 (stereo partly drawn),12.1%
5,CCCCOCCCNC(=S)Nc1ccc(S(=O)(=O)N2CCOCC2)cc1,9.09%
6,Cc1ccc(N2CC(C(=O)Nc3ccc4c(c3)OCO4)CC2=O)cc1 (stereo not drawn),8.67%
7,COc1ccc(CNC(=O)CSc2ncn[nH]2)cc1OC,17.6%
8,CC(=O)c1ccc(S(=O)(=O)N(C)C(C)CCc2ccco2)cc1 (stereo not drawn),9.14%
9,Cc1ccc(OP(N)(=O)Oc2ccc(C)cc2)cc1,8.04%
10,Cc1cc(NC(=O)c2cccnc2)ccc1NC(=O)c1ccco1,22.7%
11,COc1ccc(NS(=O)(=O)c2cc(NC(=O)c3ccco3)ccc2N2CCCC2)cc1,-1.4%
12,O=C1CCSc2cccc3cccc(c23)N1,2.17%
13,Cc1cccc2nc(C(=O)Nc3cc(Cl)ccc3-n3cncn3)cn12,5.37%
14,CCOc1ccc(C(CC(=O)O)NC(=O)COc2ccccc2)cc1 (stereo not drawn),14.5%
15,CN(CC(=O)O/N=C(\N)c1ccc(Br)cc1)S(=O)(=O)c1ccccc1,6.17%
16,CC(=O)Cc1nsc(NC(=O)c2ccc(-c3cc(C(F)(F)F)ccc3Cl)o2)n1,19%
17,Cc1ccc(C)c(N2CCN(CCCNC(=O)Cn3cccc3C(=O)c3ccccc3)CC2)c1,-19.7%
18,COc1cccc(CNC(=O)c2nnn(-c3ccc(OC(F)(F)F)cc3)c2N)c1,-6.5%
19,CCC(=O)N1CCc2cc(S(=O)(=O)N3CCCCCC3)ccc21,16.1%

row,SMILES,"hERG current change (%, negative = inhibition) at 1uM"
1,O=C(CCC(=O)N1C[C@H]2C[C@@H](C1)c1cccc(=O)n1C2)NCc1cccc(C(F)(F)F)c1,10.4%
2,Cc1cc(=O)oc2cc(N3C(=O)CC(Cc4ccccc4)C3=O)ccc12 (stereo not drawn),0.0956%
3,CCOC(=O)c1cccc(NC(=O)C2CCN(S(=O)(=O)c3cnc[nH]3)CC2)c1,6.74%
4,Cc1c(OC(C)C(=O)NCc2ccccn2)ccc2c3c(c(=O)oc12)CCC3 (stereo not drawn),30.3%
5,Cc1nc(-c2nnc(SCC(=O)Nc3ccc(Cl)cc3)n2C)cs1,6.1%
6,CCCCc1cc(=O)oc2cc(C)cc(OCC(=O)N3CCC(C(=O)O)(c4ccccc4)CC3)c12,0.325%
7,CCN(CC)S(=O)(=O)c1cccc(-c2nnc(SCCOc3ccc(Cl)cc3)o2)c1,15.6%
8,O=C(NCc1ccc(F)cc1)c1cccc(S(=O)(=O)N2CCOCC2)c1,4.55%
9,CC1CC2=C(C(=O)O1)C(c1ccccc1)Nc1ccccc1N2 (stereo not drawn),12.8%
10,CC(C)NS(=O)(=O)c1ccc(CCC(=O)NCc2ccncc2)cc1,7.1%
11,Cc1nn(CCC#N)c(NC(=O)c2ccc(Cl)cc2)c1P(=O)(Nc1ccc([N+](=O)[O-])cc1)N1CCOCC1 (stereo not drawn),11.4%
12,Cc1cccc(CN2CCCC(C(=O)c3ccc4c5c(cccc35)CC4)C2)n1 (stereo not drawn),7.32%
13,O=C(c1cccc(F)c1)N1CCc2ccccc2C1,-4.32%
14,O=C(N/N=C/c1c[nH]c2ccccc12)c1ccc([N+](=O)[O-])cc1Cl,14.1%
15,CCOC(=O)C1CCCN(C(=O)Cc2ccc(C)cc2)C1 (stereo not drawn),7.03%
16,O=C(CN1C(=O)S/C(=C/c2cccs2)C1=O)N1CCOCC1,12.5%
17,CCOC(=O)C1=C(CSc2nc(CC)c(C)cc2C#N)OC(N)=C(C#N)C1c1ccccc1 (stereo not drawn),5%
18,Nc1nc(SCC(=O)NCCC(c2ccccc2)c2ccccc2)n[nH]1,11.2%
19,Cl.N[C@@H](Cc1ccc(O)cc1)c1nnc([C@H](CO)NC(=O)C2CCNCC2)o1,8.64%
